Measurements reported in the supplement of paper PMC12217912.
Some of the results follow. The full chains were built here from the parent and the listed change. Values near 0.05 are background.

B1: TEV protease; numbered along this chain (parent)
chain: MGESLFKGPRDYNPISSSICHLTNESDGHTTSLYGIGFGPFIITNKHLFRRNNGTLVVQSLHGVFKVKDTTTLQQHLVDGRDMIIIRMPKDFPPFPQKLKFREPQREERICLVTTNFQTKSMSSMVSDTSCTFPSGDGIFWKHWIQTKDGQCGSPLVSTRDGFIVGIHSASNFTNTNNYFTSVPKNFMELLTNQEAQQWVSGWRLNADSVLWGGHKVFMVKPEEPFQPVKEATQL

Variants of: B1
Experiment: raw area under fraction-flipped curve 0-4 h after induction (AUC4h, not background-subtracted), DNA-recorder readout of cleavage of the substrate (dimensionless); higher = more cleavage of the substrate by the protease variant
Conditions: temperature: 34 °C; time window: 0-4 h after rhamnose induction
Description: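 In vivo DNA recorder in E. coli TOP10(DE3) ΔrhaA at 34 °C. Each TEVp single-site mutant (parent TEVp 0) is paired with a single-site variant of the 7-mer TEVs (canonical ENLYFQ|S). The substrate sits between flexible linkers in a Bxb1-sfGFP-TEVs-SsrA fusion, so cleavage stabilises Bxb1 and speeds flipping of a recombination array, read by NGS. The value is the raw area under the fraction-flipped curve over 0-4 h after rhamnose induction (AUC4h), with ≥20 reads per time point. It is not background-subtracted; inactive controls average about 0.047.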
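Note: Bxb1 expression induced with 0.2% (w/v) L-rhamnose at OD600 near 0.5, cultures sampled hourly, flipped fraction per protease–substrate barcode pair counted by paired-end Illumina sequencing.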

Variant | area with substrate ENLAFQS | area with substrate ENLDFQS | area with substrate ENLFFQS | area with substrate ENLGFQS | area with substrate ENLIFQS | area with substrate ENLKFQS | area with substrate ENLLFQS | area with substrate ENLMFQS | area with substrate ENLNFQS | area with substrate ENLPFQS | area with substrate ENLQFQS | area with substrate ENLSFQS | area with substrate ENLVFQS | area with substrate ENLCFQS | area with substrate ENLEFQS | area with substrate ENLHFQS | area with substrate ENLTFQS | area with substrate ENLWFQS | area with substrate ENLRFQS
F117E | 0.0571 | 0.0667 | 0.0804 | 0.0539 | 0.0796 | 0.083 | 0.079 | 0.0658 | 0.0507 | 0.0759 | 0.0789 | 0.0728 | 0.0632 | – | – | – | – | – | –
I110K | 0.0551 | 0.0593 | 0.0476 | – | – | 0.0988 | – | – | 0.0525 | 0.0504 | – | – | 0.0449 | 0.069 | 0.0627 | 0.0596 | 0.0516 | 0.0533 | –
H143G | 0.0326 | 0.0488 | 0.0779 | – | 0.0765 | 0.0678 | – | – | 0.0764 | 0.062 | 0.0585 | 0.0645 | – | 0.0855 | – | 0.0754 | – | – | 0.0632
R87H | 0.0493 | 0.0782 | 0.0818 | – | – | 0.0438 | – | 0.101 | 0.0655 | 0.0517 | 0.034 | 0.0782 | – | 0.0473 | 0.053 | – | 0.0642 | – | –
R109L | 0.0722 | – | – | – | 0.0666 | – | – | 0.0619 | 0.0652 | 0.0496 | 0.0508 | – | 0.102 | 0.0601 | 0.0523 | 0.0657 | – | – | –
K90V | 0.07 | 0.0549 | – | – | 0.0928 | 0.075 | 0.0847 | 0.0823 | 0.0723 | 0.0703 | – | 0.0598 | 0.0854 | 0.0921 | – | 0.0431 | – | – | 0.0692
K90H | 0.0774 | 0.0614 | 0.0823 | 0.0781 | 0.0906 | 0.0734 | 0.0758 | – | 0.0838 | 0.0719 | 0.0762 | 0.0773 | – | 0.0855 | 0.0546 | – | – | 0.065 | 0.0689
S127L | 0.0714 | 0.0589 | 0.0973 | 0.0585 | – | 0.0889 | – | – | 0.0542 | – | 0.0688 | 0.0531 | – | 0.0697 | 0.0684 | – | – | – | 0.0726
S127I | 0.0627 | 0.0491 | 0.103 | 0.069 | – | 0.0764 | 0.0541 | 0.0772 | 0.0944 | 0.031 | 0.0675 | 0.0439 | 0.0777 | – | 0.0727 | 0.0693 | 0.075 | 0.0867 | –
I85Y | 0.0626 | 0.0572 | 0.062 | 0.06 | 0.06 | 0.0634 | – | 0.0666 | 0.0562 | 0.0623 | 0.0466 | 0.0573 | – | 0.0742 | 0.0751 | 0.0634 | – | – | 0.0718
I85T | 0.0572 | 0.038 | 0.0708 | 0.0543 | – | – | 0.0492 | – | 0.0334 | 0.0423 | 0.0675 | 0.0485 | 0.0436 | 0.0692 | – | – | – | 0.0368 | –
K98P | 0.0599 | 0.0548 | 0.0752 | 0.0738 | 0.0791 | 0.0714 | 0.0763 | 0.0635 | 0.0606 | – | 0.0567 | 0.0624 | 0.0671 | 0.0804 | 0.0571 | 0.0642 | 0.06 | 0.0669 | 0.0789
K98N | 0.0473 | 0.0632 | 0.0792 | – | – | 0.0692 | 0.0868 | – | 0.0778 | 0.0594 | 0.0661 | 0.0804 | 0.0903 | 0.0702 | 0.0593 | 0.068 | – | 0.0803 | 0.0754
S135F | 0.0647 | 0.0699 | 0.0647 | – | 0.0627 | 0.0618 | 0.0594 | 0.0604 | 0.065 | 0.0527 | 0.0794 | 0.0532 | 0.0636 | 0.0686 | – | 0.0636 | – | – | 0.0492
S135N | 0.0604 | 0.0673 | 0.0689 | – | – | 0.0519 | 0.0599 | – | 0.0541 | 0.0448 | 0.073 | 0.0494 | – | 0.0578 | 0.0619 | – | – | 0.078 | –
S135K | 0.0724 | 0.0647 | 0.0653 | 0.0739 | 0.0695 | – | 0.0723 | 0.0693 | 0.063 | 0.0662 | 0.0562 | – | – | 0.0648 | 0.0639 | – | 0.0597 | 0.037 | 0.0588
R106S | 0.0611 | 0.0546 | 0.101 | – | 0.109 | 0.0733 | – | – | – | – | 0.101 | 0.0703 | – | 0.0679 | 0.0647 | 0.0673 | – | 0.0581 | 0.0698
R106E | 0.0616 | 0.0671 | 0.0996 | – | 0.0805 | 0.0785 | 0.0804 | 0.0723 | 0.0608 | 0.0592 | 0.102 | 0.0734 | – | 0.0999 | 0.0688 | 0.0735 | – | – | 0.0773
G136C | 0.0537 | 0.0633 | 0.102 | 0.0633 | 0.0844 | – | 0.0726 | 0.0599 | 0.0712 | 0.0645 | 0.0745 | 0.0675 | 0.0815 | 0.0874 | 0.0781 | 0.0752 | 0.0622 | 0.0655 | 0.0766
G136D | 0.063 | 0.0611 | 0.0679 | 0.0767 | – | 0.0615 | 0.0898 | 0.066 | 0.0703 | 0.0618 | 0.0727 | 0.0536 | – | 0.0608 | 0.0671 | – | 0.0557 | – | 0.0652
P134Q | 0.0708 | – | 0.0738 | – | – | 0.0679 | 0.0693 | – | – | 0.0525 | – | 0.0619 | 0.0756 | 0.0661 | 0.0641 | 0.0632 | – | 0.0594 | –
P134W | 0.0567 | 0.0605 | 0.0419 | – | – | 0.0702 | 0.0365 | – | 0.0561 | 0.0345 | – | – | – | 0.0646 | 0.0504 | – | – | – | –
V126I | 0.0606 | 0.0574 | 0.0691 | 0.0759 | 0.0821 | 0.0766 | 0.0801 | 0.0544 | 0.0569 | 0.0771 | 0.0754 | 0.0582 | – | 0.0865 | – | 0.0613 | 0.0778 | – | 0.0876
Q118Y | 0.0524 | 0.0522 | – | – | – | 0.084 | – | – | 0.0646 | – | – | – | – | – | – | – | 0.0615 | – | 0.0727
V113S | 0.0491 | 0.044 | 0.063 | 0.0638 | 0.0579 | 0.0692 | 0.0558 | 0.0566 | 0.0585 | 0.0328 | 0.0561 | – | 0.108 | 0 | – | 0.0419 | – | 0.0469 | –
V113M | 0.0631 | 0.0598 | 0.0959 | – | – | – | – | 0.0324 | 0.0751 | 0.0388 | 0.0805 | – | – | – | 0.0749 | 0.0706 | – | – | 0.0642
